Data published in the supplement of paper PMC9446081.
Out of some 39,000 compounds screened, about 220 (0.56%) showed activity. This is one part of the list.
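Also: static incubation at 37 °C against the wild-type strain, values averaged over two biological replicates.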

The molecules below were run on Escherichia coli K-12 BW25113 (assay: relative growth (OD600 normalised to plate interquartile mean) (fraction); higher = less growth inhibition, active = 0.2 or less). Details: 50 µM; LB; incubation time: overnight (16-24 h).
In the case of `C[N+](C)(C)CC(O)CC(=O)O.[Cl-]` (stereo not given), the relative growth is reported as inactive: 1.13. In the case of `Cc1nn(C)cc1NC(=O)C[C@@H]1CC[C@@H]2[C@H](COc3ccc(NC(=O)C4CCOCC4)cc3C(=O)N2C)O1`, the relative growth is reported as inactive: 0.986. For `C[C@H](CO)N1C[C@H](C)[C@@H](CN(C)Cc2ccncc2)Oc2c(NS(=O)(=O)c3ccc(F)cc3)cccc2C1=O`, the relative growth was inactive: 1. `CNC(=C[N+](=O)[O-])NCCSCc1csc(CN(C)C)n1` was tested, and the relative growth was inactive: 0.964. With `C[C@@H]1CN([C@H](C)CO)C(=O)c2cc(NC(=O)NC3CCCCC3)ccc2O[C@@H](C)CCCCO[C@H]1CN(C)Cc1ccc(C(=O)O)cc1` the relative growth was inactive: 0.996. With `C[C@@H]1CN([C@@H](C)CO)C(=O)c2cc(NS(=O)(=O)c3cccs3)ccc2O[C@@H]1CN(C)C(=O)Nc1cccc2ccccc12` the relative growth was inactive: 1.01. `CCCNC(=O)N1C[C@]2(CCN(CC2)S(=O)(=O)c2ccccc2)c2c(n(c3cc(ccc23)OC)C)[C@@H]1CO` was tested, and the relative growth was inactive: 1.04. In the case of `CC(=O)OC1CCC2(C)C(CCC3(C)C2CC=C2C4CC(C)(C)CCC4(C(=O)O)CCC23C)C1(C)C` (stereo not given), the relative growth is reported as inactive: 1.02. In the case of `COc1ccc(NC(=O)Nc2ccc3c(c2)C(=O)N([C@H](C)CO)C[C@H](C)[C@H](CN(C)Cc2ccc(C(F)(F)F)cc2)OCCCC[C@@H](C)O3)cc1`, the relative growth is reported as inactive: 1.04. With `C[C@H](C(=O)O)[C@H]1SC(=O)NC1=O` the relative growth was inactive: 0.993. `C[C@H](CO)N1C[C@H](C)[C@H](CN(C)Cc2ccc(C(F)(F)F)cc2)OCCCC[C@H](C)Oc2ccc(NC(=O)c3ccccc3)cc2C1=O` was tested, and the relative growth was inactive: 0.999. In the case of `O=C(CN1CCOCC1)NCC[C@H]1CC[C@H](NC(=O)Cc2ccccn2)[C@@H](CO)O1`, the relative growth is reported as inactive: 0.991. In the case of `C[C@@H]1CN([C@H](C)CO)C(=O)Cc2cc(NC(=O)Cc3ccccc3)ccc2O[C@H]1CN(C)Cc1ccc(Cl)c(Cl)c1`, the relative growth is reported as inactive: 0.992. For `COc1ccccc1-c1cnc2c(c1)C(=O)N([C@H](C)CO)C[C@@H](C)[C@H](CN(C)C(=O)c1ccncc1)O2`, the relative growth was inactive: 1.01. For `CO[C@@H]1CC[C@@H]2[C@H]1OCCN2C(=O)N(C)C`, the relative growth was inactive: 1.01. For `OC[C@H]1CC[C@@H]2O[C@H](CCc3ccc(C#Cc4ccccc4)cc3)[C@@H](n3cc(-c4ccccc4)nn3)C[C@@H]2O1`, the relative growth was inactive: 1.02. `COc1ccc(NC(=O)Nc2cccc3c2O[C@@H](CN(C)Cc2ccc(Cl)c(Cl)c2)[C@@H](C)CN([C@H](C)CO)C3=O)cc1` was tested, and the relative growth was inactive: 0.988. `CNC(=NCc1ccc(OC)cc1)NC` was tested, and the relative growth was inactive: 0.998. `CC(C)NC(=O)Nc1ccc2c(c1)C(=O)N([C@@H](C)CO)C[C@@H](C)[C@@H](CN(C)C(=O)C1CCCCC1)OCCCC[C@@H](C)O2` was tested, and the relative growth was inactive: 1.01. With `COc1ccc(S(=O)(=O)Nc2cccc3c2O[C@@H](CN(C)S(=O)(=O)c2ccc(C)cc2)[C@@H](C)CN([C@@H](C)CO)C3=O)cc1` the relative growth was inactive: 1.03. With `O=C(C[C@H]1CC=CCC[C@H](Cc2ccc(F)cc2)C(=O)OC[C@@H](Cc2ccccc2)NC1=O)NCCO` the relative growth was inactive: 0.993. With `CS(=O)(=O)Nc1ccc([N+](=O)[O-])cc1Oc1ccccc1` the relative growth was inactive: 0.925. With `COc1cc(-c2coc3cc(OC4OC(CO)C(O)C(O)C4O)c(OC)c(O)c3c2=O)cc(O)c1OC` (stereo not given) the relative growth was inactive: 1.09. In the case of `O=C(C[C@@H]1CC[C@@H]2[C@H](COC[C@H](O)CN2S(=O)(=O)c2ccc(Cl)cc2)O1)N1CCc2ccccc2C1`, the relative growth is reported as inactive: 1.01. For `C[C@H](CO)N1C[C@H](C)[C@H](CN(C)S(=O)(=O)c2ccccc2C#N)OCc2cnnn2CCCC1=O`, the relative growth was inactive: 1.01. In the case of `COc1ccc(NC(=O)Nc2ccc3c(c2)C(=O)N([C@@H](C)CO)C[C@@H](C)[C@H](CN(C)S(=O)(=O)c2ccc(C)cc2)OCCCC[C@@H](C)O3)cc1`, the relative growth is reported as inactive: 1.02. In the case of `O=S(=O)([O-])c1cc(O)c2c(N=Nc3ccc(Nc4ccccc4)c4c(S(=O)(=O)[O-])cccc34)cc(S(=O)(=O)[O-])cc2c1.[Na+].[Na+].[Na+]`, the relative growth is reported as inactive: 1.25. For `CC1(C)OC(=O)C2(C(=O)O1)[C@@H](c1ccc(-c3ccc(-c4ccc(O)cc4)cc3)cc1)CC(=O)C[C@H]2c1ccccc1`, the relative growth was inactive: 1.02. `Cc1noc(C)c1S(=O)(=O)N(C)C[C@@H]1OCCCC[C@@H](C)Oc2ccc(N(C)C)cc2C(=O)N([C@@H](C)CO)C[C@H]1C` was tested, and the relative growth was inactive: 0.99. `Cc1ccnc(N)c1` was tested, and the relative growth was inactive: 0.966. For `COc1ccc(C(=O)O)cc1`, the relative growth was inactive: 1.04. `C[C@H]1CN([C@@H](C)CO)C(=O)c2cc(NC(=O)Cc3cn(C)c4ccccc34)ccc2O[C@@H]1CN(C)Cc1ccc(Oc2ccccc2)cc1` was tested, and the relative growth was inactive: 0.963. `OS(=O)(=O)c1ccc(cc1)/C/1=C\2/N/C(=C(\C3=N/C(=C(/c4ccc(cc4)S(=O)(=O)O)c4ccc([nH]4)/C(=C\4/C=CC1=N4)c1ccc(cc1)S(=O)(=O)O)C=C3)c1ccc(cc1)S(=O)(=O)O)C=C2` was tested, and the relative growth was inactive: 0.994. With `COc1ccc(CN(C)C[C@H]2Oc3c(NC(=O)Nc4ccc(C(F)(F)F)cc4)cccc3C(=O)N([C@H](C)CO)C[C@@H]2C)cc1` the relative growth was inactive: 0.668. In the case of `CCCNC(=O)Nc1ccc2c(c1)C(=O)N(C)C[C@H](OC)[C@@H](C)CN(Cc1ccc(-c3ccccn3)cc1)[C@H](C)CO2`, the relative growth is reported as inactive: 0.995. For `Cc1noc(C)c1NC(=O)Nc1ccc2c(c1)C(=O)N([C@H](C)CO)C[C@H](C)[C@H](CN(C)Cc1ccc(-c3ccccc3)cc1)O2`, the relative growth was inactive: 0.872. `CC(C)(C)S(=O)N1Cc2cc(C(=O)NCc3ccc4c(c3)OCO4)nc(-c3cccc(-c4cccc(F)c4)c3)c2[C@@H]1CCO` (stereo not given in full) was tested, and the relative growth was inactive: 1.02. With `C[C@@H]1CN([C@H](C)CO)C(=O)c2c(c3ccccc3n2C)-c2ccccc2CO[C@@H]1CN(C)Cc1ccc(C(F)(F)F)cc1` the relative growth was inactive: 1.08. With `CC(=O)N1CSC[C@H]1C(=O)O` the relative growth was inactive: 0.997. With `C[C@H]1CN([C@@H](C)CO)C(=O)c2cccc(NC(=O)Nc3ccc4c(c3)OCO4)c2O[C@H]1CN(C)C(=O)Nc1ccc(C(F)(F)F)cc1` the relative growth was inactive: 0.95. With `O=C(NCc1ccncc1)C(=O)NC[C@H]1OCCN1S(=O)(=O)c1ccc(F)cc1` the relative growth was inactive: 1.02. `C[C@@H]1CN([C@@H](C)CO)C(=O)c2cc(NC(=O)CCC(F)(F)F)ccc2O[C@@H]1CN(C)S(=O)(=O)c1cn(C)cn1` was tested, and the relative growth was inactive: 0.979. With `CCCC#Cc1cnc2c(c1)C(=O)N([C@H](C)CO)C[C@H](C)[C@H](CN(C)S(=O)(=O)c1cccc(OC)c1)O2` the relative growth was inactive: 1.05. `O=C(O)c1cncc(C(=O)O)c1` was tested, and the relative growth was inactive: 1.04. With `C[C@H](N)C(=O)O` the relative growth was inactive: 1.01. For `Cc1noc(C)c1S(=O)(=O)N(C)C[C@@H]1OCCCC[C@H](C)Oc2ccc(N(C)C)cc2C(=O)N([C@@H](C)CO)C[C@H]1C`, the relative growth was inactive: 0.967. With `C[C@H](CO)N1C[C@H](C)[C@H](CN(C)S(C)(=O)=O)Oc2cc(-c3cccc(F)c3)ccc2S1(=O)=O` the relative growth was inactive: 1.03. `CC1(C)CCC(c2ccc(Cl)cc2)=C(CN2CCN(c3ccc(C(=O)NS(=O)(=O)c4ccc(N[C@H](CCN5CCOCC5)CSc5ccccc5)c(S(=O)(=O)C(F)(F)F)c4)cc3)CC2)C1` was tested, and the relative growth was inactive: 1.05. With `CN1CCN(C(=O)C[C@H]2CC[C@H]3[C@@H](COC[C@@H](O)CN3C(=O)Nc3ccc4c(c3)OCO4)O2)CC1` the relative growth was inactive: 1.01. In the case of `C[C@@H]1CCCCO[C@@H](CN(C)C(=O)Nc2ccc(C(F)(F)F)cc2)[C@@H](C)CN([C@H](C)CO)C(=O)c2cc(NC(=O)Nc3ccccc3)ccc2O1`, the relative growth is reported as inactive: 1.02. `CCCNC(=O)N(C)C[C@@H]1Oc2ncc(-c3ccc(C(=O)N(C)C)cc3)cc2C(=O)N([C@H](C)CO)C[C@@H]1C` was tested, and the relative growth was inactive: 0.991. With `COc1ccc(CN(C)C[C@H]2Oc3ccc(NS(=O)(=O)c4cn(C)cn4)cc3C(=O)N([C@@H](C)CO)C[C@H]2C)cc1` the relative growth was inactive: 1.02. `C[C@@H]1CCCCO[C@@H](CN(C)C(=O)Nc2ccc3c(c2)OCO3)[C@@H](C)CN([C@@H](C)CO)C(=O)c2cc(NS(=O)(=O)c3ccccc3)ccc2O1` was tested, and the relative growth was inactive: 1.01. In the case of `C[C@H]1O[C@@H](OC[C@H]2O[C@@H](Oc3c(-c4ccc(O)c(O)c4)oc4cc(O)cc(O)c4c3=O)[C@@H](O)[C@@H](O)[C@@H]2O)[C@@H](O)[C@@H](O)[C@@H]1O`, the relative growth is reported as inactive: 1.02. With `CC(C)NC(=O)N(C)C[C@@H]1Oc2c(NS(=O)(=O)c3ccccc3)cccc2C(=O)N([C@H](C)CO)C[C@H]1C` the relative growth was inactive: 1.02. With `C[C@@H]1CN([C@H](C)CO)C(=O)c2cc(NS(=O)(=O)c3cccs3)ccc2O[C@H]1CN(C)Cc1ccc(-c2ccccc2)cc1` the relative growth was inactive: 0.997. With `COc1cccc(NC(=O)N(C)C[C@@H]2Oc3cc(C#CC4(O)CCCC4)ccc3S(=O)(=O)N([C@H](C)CO)C[C@H]2C)c1` the relative growth was inactive: 1. `C[C@H]1CN([C@@H](C)CO)C(=O)c2cccc(NC(=O)c3nc4ccccc4s3)c2O[C@H]1CN(C)C(=O)Nc1cccc2ccccc12` was tested, and the relative growth was inactive: 1.02. For `CC(C)NC(=O)N(C)C[C@H]1Oc2ccc(NS(=O)(=O)c3ccc(F)cc3)cc2CC(=O)N([C@@H](C)CO)C[C@H]1C`, the relative growth was inactive: 1.01. For `Cc1ccc(S(=O)(=O)Nc2ccc3c(c2)C(=O)N([C@@H](C)CO)C[C@@H](C)[C@@H](CN(C)C(=O)Nc2ccc(F)cc2)OCCCC[C@@H](C)O3)cc1`, the relative growth was inactive: 1.03.
